According to the supplement of paper PMC4466236:
The full ranking holds about 33,000 sequences; the median of “E-score (dimensionless, -0.5 to 0.5)” is about -0.058, and the highest 2% start at about 0.35. The list shows a part of the results.

System: MvaT
Experiment: PBM 8-mer E-score (mean of HK and ME arrays) (E-score (dimensionless, -0.5 to 0.5)); higher = stronger relative binding preference; most listed sequences are background and not binding sites
Outline: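 Full-length P. aeruginosa MvaT, with glutathione S-transferase fused to its N-terminus (cloned into pTH6838 by isothermal assembly), was tested by protein binding microarray using a previously described protocol. Two universal double-stranded 60-mer arrays (ME and HK) were used, each with a constant 25-mer primer region and a variable 35-mer region covering all 8-mers. The rank-based 8-mer E-score (-0.5 to 0.5) is the mean of the two arrays, parsed with a custom Python script.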

Sequence	PBM 8-mer E-score
ATCGGTAC	0.0402
ATCATAGA	0.1
AAGGACGT	-0.149
TATGGGGA	-0.154
ACATGCCG	-0.084
CGAAGGCA	-0.222
ATGTTGGC	0.12
AAGTGACC	0.02
ATTTCAGG	-0.0723
GCCATTGA	-0.243
CCAACTTA	0.308
GAAGCTGC	-0.257
CCTTTGAC	-0.19
CTCTTGGC	-0.19
CGCGTCAC	-0.153
ATGTCACA	0.13
TGATGGAA	0.0193
AATGTGAG	0.0855
GTTTAAAA	0.293
AAGACTAA	0.208
TCAGCCAA	-0.127
ATCTCGCA	0.101
AGAATGCG	0.0191
AGCAGCCG	-0.209
GTACCTAC	-0.0955

Sequence	PBM 8-mer E-score
ACCTGTTA	0.0504
CTCACCGA	-0.102
ACTTTTGC	0.0662
AAGTTGCT	0.128
CTAGCGTA	-0.0493
AGACTAGC	-0.0886
GCTAAGGA	-0.182
ACCCGCCG	-0.149
ACAGGACA	-0.165
CGCACTGA	-0.0326
GGACACTA	-0.164
ACACCCAA	-0.0593
AGTATCGA	0.12
AGGCATTG	-0.173
CGACAGCG	-0.032
TACGAATA	0.204
CTGACGGA	-0.0885
ACACCAAG	-0.207
AATCGAGC	-0.121
CACGGCGA	-0.143
CCTTCACA	-0.0342
AACTTCTG	0.131
CCGCGTAC	-0.0945
ACCGACGC	-0.13
CCAAGGGA	-0.26

Sequence	PBM 8-mer E-score
CCCACACC	0.0355
ACTACTCC	0.0169
GATGTATA	0.289
TCCTGGAA	-0.0682
AGCAGCAT	0.0492
CGAGCTGA	-0.193
AGGTGACC	-0.205
GGTGTTCA	-0.119
GCATAACC	0.0428
ATACCCGG	-0.0701
ATGGAAAC	0.0811
CACTGGGG	-0.22
CAGACAAA	0.0494
GTTTGTAA	0.261
CCCAGATC	-0.287
ACATTCTG	0.0683
CAAGAGTC	-0.0464
AACCGCCC	-0.224
CACAATGC	-0.0696
GCGTCGTA	-0.0541
CCTGCAGA	-0.14
GCAGTGGA	-0.107
ACACTTAG	0.149
AGCGGGAC	-0.179
GATTACGA	0.0299

Sequence	PBM 8-mer E-score
GAAAGCAC	-0.183
ATGAATCG	0.0269
AAGGCTAA	0.00985
GACTGCCC	-0.198
GATGGAGC	-0.184
GACAGGGA	-0.215
CGAGTTAG	-0.0256
CCCGTAGG	-0.317
AAAGCGTT	0.0685
ATAGCCGG	-0.189
CCTCCATA	-0.0947
CTACACAA	0.0154
GGCACCCA	-0.148
CGCTCCCA	-0.205
CCTAACTA	0.0781
ACTGGGAG	-0.198
CGGCGAGC	-0.26
GCGATAAA	0.203
AACGCGCT	0.0074
CCACTGGC	-0.179
GCAAATTA	0.199
CGAAGACA	-0.0154
AGGCACTG	-0.124
CCTGCAAG	-0.189
TGACGGAA	0.141

Sequence	PBM 8-mer E-score
AGAGCCCT	-0.307
TACTCTAA	0.136
CATTCGTA	-0.0444
AGGGGTCA	-0.239
ACATCATG	-0.0644
GCTGACAC	-0.102
AAGTTGCC	0.22
ATGGCCCG	-0.241
AAGGCTCA	-0.247
AATAGTAA	0.338
AGCGGGGG	-0.216
CAGGCGAA	-0.184
ACTACACG	0.0312
ATCTTTTG	-0.00788
AGTTCTTC	-0.0102
CGCTTCAA	0.0896
CCTTTCGA	-0.222
GCGCTTTA	-0.00157
CTATGACC	-0.0108
TCGGACCA	-0.0698
AACTATCG	0.0977
GCGAGATA	0.0541
ACGAGAGC	-0.0464
ACTAGCTA	0.0346
AGGGCTAA	-0.142

Sequence	PBM 8-mer E-score
CACGGCTA	-0.21
CTGGCCTA	-0.287
GAGCAACA	-0.0635
AGTTACTA	0.3
CGATCAAG	-0.0412
GACTAGGA	-0.0815
ATGGTTTG	0.101
GATTCCCC	-0.148
AACTGTTG	0.123
GAAGTCGA	-0.0693
AGCCAAGC	-0.216
GCTCTCAA	-0.196
ATAGCAGA	-0.0387
AAGCCGCA	-0.0885
CAAAACAG	0.131
GAAAGGCC	-0.217
GGGAACCA	-0.227
CTGGTACA	-0.102
GGGGACTA	-0.199
ACCTGGAC	-0.271
AGTAAAGA	0.112
AATTTATC	0.276
CAAGACAA	0.0048
AAAACTAT	0.344
CTAGATAC	0.0488

Sequence	PBM 8-mer E-score
AATCGGAG	-0.15
CTAGGTCC	-0.307
AGCCACCG	-0.196
TGCTCCCA	-0.228
GGGTGCCA	-0.248
AGGTAAAA	0.196
TTGTACAA	0.161
GCAGCTGA	-0.247
AATCTTTG	0.127
CTACAAAA	-0.0651
GAACACCC	-0.00413
GCGACAGA	-0.133
AAAAAGGA	0.0202
TGTTAAAA	0.25
CCTGAAGC	-0.132
CGGTACCA	-0.127
CTTTACGA	-0.0864
ATATTAAA	0.466
CGAAGTAG	-0.0784
ACGCAGGC	-0.282
AAGTCCTG	-0.047
TAAGGTGA	-0.00551
